Experimental data published in patent US20210324040A1 (ACCELERON PHARMA, published 2021).

Columns and labels:
[1] = target: T1, Human TGFβ1 (human, UniProt P01137 in part); assay: cell-based or functional assay
[2] = target: T1, Human TGFβ1; assay: cell-based or functional assay; remark: listed apart in the source
T1 sequence (P01137 279-390 limits assumed): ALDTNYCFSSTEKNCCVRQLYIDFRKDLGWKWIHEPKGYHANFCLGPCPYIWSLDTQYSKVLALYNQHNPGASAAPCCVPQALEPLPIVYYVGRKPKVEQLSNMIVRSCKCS

IC50 (inhibition of TGFβ1 in the A549 pGL3(CAGA)12 luciferase reporter gene assay) [1] [pM] | IC50 (inhibition of TGFβ1 in the A549 pGL3(CAGA)12 luciferase reporter gene assay) [2] | Binder
20 |  | hTβRII (G4S)6-hFc (Fc fusion) GATIPPHVQKSDVEMEAQKDEIICPSCNRTAHPLRHINNDMIVTDNNGAVKFPQLCKFCDVRFSTCDNQKSCMSNCSITSICEKPQEVCVAVWRKNDENITLETVCHDPKLPYHDFILEDAASPKCIMKEKKKPGETFFMCSCSSDECNDNIIFSEEYNTSNPDTGGGGSGGGGSGGGGSGGGGSGGGGSGGG[human IgG1 Fc and a few adjoining residues not written out]
30 |  | hTβRII (G4S)5-hFc (Fc fusion) GATIPPHVQKSDVEMEAQKDEIICPSCNRTAHPLRHINNDMIVTDNNGAVKFPQLCKFCDVRFSTCDNQKSCMSNCSITSICEKPQEVCVAVWRKNDENITLETVCHDPKLPYHDFILEDAASPKCIMKEKKKPGETFFMCSCSSDECNDNIIFSEEYNTSNPDTGGGGSGGGGSGGGGSGGGGSGGG[human IgG1 Fc and a few adjoining residues not written out]
 | 1.12 nM | hTβRII (G4S)2-hFc (Fc fusion) GATIPPHVQKSDVEMEAQKDEIICPSCNRTAHPLRHINNDMIVTDNNGAVKFPQLCKFCDVRFSTCDNQKSCMSNCSITSICEKPQEVCVAVWRKNDENITLETVCHDPKLPYHDFILEDAASPKCIMKEKKKPGETFFMCSCSSDECNDNIIFSEEYNTSNPDTGGGGSGGG[human IgG1 Fc and a few adjoining residues not written out]
 | 7.69 nM | hTβRII-hFc (Fc fusion) GATIPPHVQKSDVEMEAQKDEIICPSCNRTAHPLRHINNDMIVTDNNGAVKFPQLCKFCDVRFSTCDNQKSCMSNCSITSICEKPQEVCVAVWRKNDENITLETVCHDPKLPYHDFILEDAASPKCIMKEKKKPGETFFMCSCSSDECNDNIIFSEEYNTSNPDTG[human IgG1 Fc and a few adjoining residues not written out]

Further lines, the binder ahead of its results:

Binder | IC50 (inhibition of TGFβ1 in the A549 pGL3(CAGA)12 luciferase reporter gene assay) [1] [pM] | IC50 (inhibition of TGFβ1 in the A549 pGL3(CAGA)12 luciferase reporter gene assay) [2]
hTβRII (G4S)3-hFc (Fc fusion) GATIPPHVQKSDVEMEAQKDEIICPSCNRTAHPLRHINNDMIVTDNNGAVKFPQLCKFCDVRFSTCDNQKSCMSNCSITSICEKPQEVCVAVWRKNDENITLETVCHDPKLPYHDFILEDAASPKCIMKEKKKPGETFFMCSCSSDECNDNIIFSEEYNTSNPDTGGGGSGGGGSGGG[human IgG1 Fc and a few adjoining residues not written out] |  | 0.22 nM
hTβRII extended hinge-hFc (Fc fusion) GATIPPHVQKSDVEMEAQKDEIICPSCNRTAHPLRHINNDMIVTDNNGAVKFPQLCKFCDVRFSTCDNQKSCMSNCSITSICEKPQEVCVAVWRKNDENITLETVCHDPKLPYHDFILEDAASPKCIMKEKKKPGETFFMCSCSSDECNDNIIFSEEYNTSNPDTGGG[human IgG1 Fc not written out] |  | 5.67 nM
hTβRII (G4S)4-hFc (Fc fusion) GATIPPHVQKSDVEMEAQKDEIICPSCNRTAHPLRHINNDMIVTDNNGAVKFPQLCKFCDVRFSTCDNQKSCMSNCSITSICEKPQEVCVAVWRKNDENITLETVCHDPKLPYHDFILEDAASPKCIMKEKKKPGETFFMCSCSSDECNDNIIFSEEYNTSNPDTGGGGSGGGGSGGGGSGGG[human IgG1 Fc and a few adjoining residues not written out] |  | 70 pM

Like-named read-outs stand apart in the source and are kept apart here.
